These are yes or no findings as the source states them, for the method shown. In cells and extracts the contact can be indirect. Tags and fused reporters may be left off the sequences shown.
Columns and labels:
GFP-Dbp5 (S. cerevisiae) [1] = target: T1, GFP-Dbp5 (S. cerevisiae) (UniProt P20449); experiment: co-IP; GFP-tagged bait on GFP-Trap_A beads from clarified yeast lysate, PBSKMT (0.5% Triton-X 100), 3 h at 4°C, no RNase A treatment indicated; Western blot; in some panels wild type and drg1-18 cells shifted for 1 h to 37°C
T1 sequence: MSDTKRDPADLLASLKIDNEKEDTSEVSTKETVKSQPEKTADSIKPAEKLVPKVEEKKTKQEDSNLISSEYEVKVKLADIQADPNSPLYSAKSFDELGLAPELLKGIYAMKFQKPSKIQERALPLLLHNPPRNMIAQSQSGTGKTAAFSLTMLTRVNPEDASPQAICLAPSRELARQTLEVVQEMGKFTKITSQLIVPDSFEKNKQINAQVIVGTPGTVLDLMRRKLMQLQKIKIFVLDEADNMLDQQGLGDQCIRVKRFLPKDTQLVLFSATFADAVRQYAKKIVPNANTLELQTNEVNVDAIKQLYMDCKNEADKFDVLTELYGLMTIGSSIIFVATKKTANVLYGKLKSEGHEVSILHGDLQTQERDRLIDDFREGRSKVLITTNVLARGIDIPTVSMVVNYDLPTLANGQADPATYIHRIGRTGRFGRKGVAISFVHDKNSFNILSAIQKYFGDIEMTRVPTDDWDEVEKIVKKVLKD

GFP-Dbp5 (S. cerevisiae) [2] = target: T1, GFP-Dbp5 (S. cerevisiae); experiment: co-IP; GFP-tagged bait on GFP-Trap_A beads from clarified yeast lysate, PBSKMT (0.5% Triton-X 100), 3 h at 4°C, samples treated with 0.2 mg/ml RNase A for 30 min at 4°C; Western blot; in some panels wild type and dbp5 mutant cells after a 1 h temperature shift
Nmd3-GFP (S. cerevisiae) = target: T2, Nmd3-GFP (S. cerevisiae) (UniProt P38861); experiment: as above
T2 sequence: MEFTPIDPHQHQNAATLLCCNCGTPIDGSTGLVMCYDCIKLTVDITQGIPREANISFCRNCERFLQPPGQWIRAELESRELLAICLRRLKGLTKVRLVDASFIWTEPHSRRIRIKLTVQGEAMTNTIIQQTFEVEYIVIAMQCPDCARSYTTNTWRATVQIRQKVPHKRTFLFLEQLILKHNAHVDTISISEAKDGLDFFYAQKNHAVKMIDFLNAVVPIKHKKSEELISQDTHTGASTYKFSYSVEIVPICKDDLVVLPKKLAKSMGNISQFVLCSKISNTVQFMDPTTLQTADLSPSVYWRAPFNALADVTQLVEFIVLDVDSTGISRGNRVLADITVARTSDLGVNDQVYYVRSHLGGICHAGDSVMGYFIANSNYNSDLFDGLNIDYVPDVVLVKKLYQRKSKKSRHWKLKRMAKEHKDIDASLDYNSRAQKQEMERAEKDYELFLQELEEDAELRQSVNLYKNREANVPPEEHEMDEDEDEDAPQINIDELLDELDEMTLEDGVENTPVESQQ

binding (GFP-Dbp5 (S. cerevisiae) [1]): no binding
binding (GFP-Dbp5 (S. cerevisiae) [2]): no binding
binding (Nmd3-GFP (S. cerevisiae)): no binding
B1: Hem15 (protein, UniProt P16622 32-393)
chain: NAQKRSPTGIVLMNMGGPSKVEETYDFLYQLFADNDLIPISAKYQKTIAKYIAKFRTPKIEKQYREIGGGSPIRKWSEYQATEVCKILDKTCPETAPHKPYVAFRYAKPLTAETYKQMLKDGVKKAVAFSQYPHFSYSTTGSSINELWRQIKALDSERSISWSVIDRWPTNEGLIKAFSENITKKLQEFPQPVRDKVVLLFSAHSLPMDVVNTGDAYPAEVAATVYNIMQKLKFKNPYRLVWQSQVGPKPWLGAQTAEIAEFLGPKVDGLMFIPIAFTSDHIETLHEIDLGVIGESEYKDKFKRCESLNGNQTFIEGMADLVKSHLQSNQLYSNQLPLDFALGKSNDPVKDLSLVFGNHEST

From PMC4752221
